# Reference: PubChem BioAssay AID624417 (National Center for Advancing Translational Sciences (NCATS), 2012)
# Where “and” joins values, the source holds several entries; their conditions need not be identical. Equal entries are not always repeated. Hit rate of the full screen: of about 410,000 compounds, about 6,400 (1.6%) were called active. This list was built around the results that the source calls inconclusive (neither active nor inactive); the mix of calls is not that of the screen. Calls come from the whole dose curve; as a rule, active = well fitted inhibition curve with a large enough effect; inconclusive = small, poorly fitted or top-dose-only effect; inactive = no such curve, though single readings can be large or run the other way. Potencies of inconclusive entries are doubtful fits and often do not repeat.
# Molecular target: Glucagon-like peptide 1 receptor (Homo sapiens) (UniProt P43220)
# UniProt P43220, sequence (P43220 whole entry, looked up): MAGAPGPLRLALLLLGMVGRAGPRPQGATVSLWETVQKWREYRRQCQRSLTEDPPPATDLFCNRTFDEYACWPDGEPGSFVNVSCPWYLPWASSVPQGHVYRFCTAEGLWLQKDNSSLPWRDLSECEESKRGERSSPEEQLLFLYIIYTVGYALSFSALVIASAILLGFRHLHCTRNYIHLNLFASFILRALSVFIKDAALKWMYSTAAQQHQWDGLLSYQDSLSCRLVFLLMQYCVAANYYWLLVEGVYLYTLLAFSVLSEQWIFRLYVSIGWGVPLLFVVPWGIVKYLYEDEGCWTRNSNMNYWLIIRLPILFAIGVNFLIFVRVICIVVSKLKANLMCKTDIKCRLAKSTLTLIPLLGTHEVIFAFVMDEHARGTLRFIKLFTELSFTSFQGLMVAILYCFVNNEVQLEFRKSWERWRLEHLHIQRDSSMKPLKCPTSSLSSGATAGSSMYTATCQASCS
# Test: qHTS of GLP-1 Receptor Inverse Agonists (Inhibition Mode); note: nearly all actives have a fitted effect of over 55% in size
# Conditions: HEK293 GLP-1R CRE-luciferase, luminescence, 24 h, GLP-1R form is constitutively active; series mostly up to 38.3 µM
# Summary of the method: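 qHTS in 1536-well format: reporter HEK293 cells expressing constitutive GLP-1R activity in DMEM + 10% Nu serum, 24 hr with compounds at 37 deg C, luminescence read after 12 min with detection reagent.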
# Potency is the fitted concentration of half-maximal effect; tags give direction and shape of the fitted curve.
row,Structure (SMILES),Potency
1,Cc1nn2c(NCCN3CCOCC3)c3c(nc2c1-c1ccccc1)CCCC3,"inconclusive: 2 µM [inhibitor, partial curve, poor fit]"
2,C/C(=N\NC(=O)CSCc1ccc([N+](=O)[O-])cc1)c1cccc(Br)c1,"inconclusive: 0.501 µM [inhibitor, full curve, poor fit]"
3,O=S1(=O)CC(N2CCC(Cc3ccccc3)CC2)CN1C1CCCCC1 (configuration not stated),"inconclusive: 15.8 µM [inhibitor, single point]"
4,CCOC(=O)C1=C(C)NC(C)=C(C(=O)OCC)C1C(=O)OCC(=O)N1c2ccccc2CC1C (configuration not stated),"inconclusive: 28.2 µM [inhibitor, single point]"
5,O=C(CCc1nc(-c2ccccc2F)no1)NC1CCCCCC1,"inconclusive: 28.2 µM [inhibitor, single point]"
6,Cc1cccc(N=Nc2c(N)n[nH]c2-c2ccc(Cl)cc2)c1,"inconclusive: 7.94 µM [inhibitor, single point]"
7,O=C(NC(Cc1ccccc1)C(=O)N1CCN(c2ccc(F)cc2)CC1)c1ccccc1 (configuration not stated),"inconclusive: 10 µM [inhibitor, partial curve, poor fit]"
8,CN(C)CCCCOc1ccc(Br)cc1Cl,"inconclusive: 7.94 µM [inhibitor, partial curve, poor fit]"
9,CCOc1ccc(/C=N/OCC(=O)NCc2cccs2)cc1,"inconclusive: 2.24 µM [inhibitor, single point]"
10,Cc1c(Cl)cccc1NC(=O)Cn1nnc2sc3c(c2c1=O)CCCC3,inactive
11,Cc1ccc(-c2nnc(Nc3ccccc3)c3ccccc23)cc1S(=O)(=O)NCc1nc2ccccc2[nH]1,"inconclusive: 28.2 µM [inhibitor, single point]"
12,NC(=O)C1CCCN(C(=S)NCc2ccc3c(c2)OCO3)C1 (configuration not stated),"inconclusive: 28.2 µM [inhibitor, single point]"
13,C=C1CCN([C@@H](CC(C)C)C(=O)NCCC(C)C)S(=O)(=O)c2ccccc21,"inconclusive: 11.2 µM [inhibitor, single point]"
14,O=C(CSc1nnnn1-c1ccccc1Cl)Nc1ccc2c(c1)OCCO2,"inconclusive: 25.1 µM [inhibitor, single point]"
15,O=C(/C=C/c1ccco1)NC(=S)Nc1ccccn1,inactive
16,COc1ccc(C(=O)/C=C2\C(=O)Nc3ccc(Br)cc32)cc1,"inconclusive: 31.6 µM [inhibitor, partial curve, poor fit]"
17,Cc1cccc(C)c1NS(=O)(=O)c1ccc(NS(=O)(=O)c2ccc3c(c2)OCCO3)cc1,"inconclusive: 10 µM [inhibitor, partial curve]"
18,C=Cc1ccc(COc2ccc3oc(-c4ccccc4)c(C(=O)OCC)c3c2)cc1,inactive
19,CCOC(=O)c1ccc(NC(=O)C2(S(=O)(=O)c3ccc(Cl)cc3)CC2)cc1,"inconclusive: 10 µM [inhibitor, single point]"
20,COc1ccc(CNc2nc(C)cc(C)c2C#N)cc1,"inconclusive: 28.2 µM [inhibitor, single point]"
21,O=C(Nc1noc2ccccc12)c1ccc(F)cc1,inactive

row,Structure (SMILES),Potency
1,CCCCCc1c2c(cc(O)c1C(=O)O)OC(=O)c1cc(C(=O)CCCC)c(OC)cc1O2,"inconclusive: 28.2 µM [inhibitor, single point]"
2,Fc1ccc(-c2cc(C(F)(F)F)nc(NCC3CCCO3)n2)cc1 (configuration not stated),"inconclusive: 10 µM [inhibitor, partial curve, poor fit]"
3,O=C(Nc1cccc(F)c1)c1ccc(S(=O)(=O)N2CCCCC2)cc1,"inconclusive: 10 µM [inhibitor, partial curve, poor fit]"
4,O=C(O)C(Oc1ccc(Cl)cc1)c1ccc(Cl)cc1 (configuration not stated),"inconclusive: 11.2 µM [inhibitor, single point]"
5,Cc1ccc(NS(=O)(=O)c2cc(C(=O)O)ccc2Cl)c(C)c1,"inconclusive: 28.2 µM [inhibitor, single point]"
6,Cc1ccc(-c2nc3ccc(Cl)cn3c2Cc2cccc(F)c2)cc1,"inconclusive: 11.2 µM [inhibitor, single point]"
7,CCCc1ccc(C(=O)NNc2ccccc2F)cc1,"inconclusive: 1 µM [inhibitor, full curve, poor fit]"
8,COC(=O)c1ccc2[nH]c(C3(O)CCCCC3)c(C)c2c1,"inconclusive: 28.2 µM [inhibitor, single point]"
9,COc1ccc(-c2[nH]ncc2N=Nc2ccccc2)cc1,inactive
10,COc1ccc(CNC(=O)C2CCN(C(=O)c3ccc(-n4ccc5ccccc54)s3)CC2)cc1,"inconclusive: 17.8 µM [inhibitor, single point]"
11,COC(=O)c1ccc(NC(=O)CSc2cn(CC(=O)N3CCCCCC3)c3ccccc23)cc1,"inconclusive: 28.2 µM [inhibitor, single point]"
12,COc1ccc(-c2cc3nc(-c4ccc(Br)cc4)cc(C(F)(F)F)n3n2)cc1,inactive
13,Cc1cc(OCC(=O)N(C)Cc2ccccc2)ccc1Cl,"inconclusive: 28.2 µM [inhibitor, single point]"
14,N#CC1=C(N)OC2=C(CCc3ccccc32)C1c1ccccc1Cl (configuration not stated),"inconclusive: 1.26 µM [inhibitor, full curve, poor fit]"
15,CCN1C(=O)c2ccc(C(=O)Nc3cccc(C(=O)O)c3)cc2C1=O,inactive
16,C[C@H]1NS(=O)(=O)c2cc(Cl)ccc2O[C@@H]1c1ccccc1,inactive
17,Cc1c(C2(O)CCCCC2)[nH]c2ccc(C(F)(F)F)cc12,"inconclusive: 7.08 µM [inhibitor, partial curve, poor fit]"
18,Cc1ccc(SCC(=O)N2CCN(c3ccccn3)CC2)cc1,"inconclusive: 20 µM [inhibitor, single point]"
19,NNC(=O)CN1C(c2cccc(Cl)c2)=Nc2ccc(Br)cc2C1c1ccccc1 (configuration not stated),"inconclusive: 12.6 µM [inhibitor, single point]"
20,CN(C(=O)c1sc2nc(N3CCCC3)c3c(c2c1N)CC(C)(C)OC3)c1ccccc1,"inconclusive: 7.94 µM [inhibitor, partial curve, poor fit]"
21,Cc1c(NC(=O)c2cc(-c3ccc(O)cc3)on2)c(=O)n(-c2ccccc2)n1C,"inconclusive: 10 µM [inhibitor, partial curve, poor fit] and inconclusive: 1 µM [inhibitor, full curve, poor fit]"

row,Structure (SMILES),Potency
1,CCOC(=O)C1CCCCN1C(=O)/C(=C/c1ccc(OC)cc1)c1ccc(OC)c(OC)c1 (configuration not stated),inactive
2,Nc1c(-c2ccccc2)cnn1-c1cccc(C(F)(F)F)c1,"inconclusive: 10 µM [inhibitor, single point]"
3,Cc1cccc(C(=O)NCC(c2ccco2)N2CCc3ccccc32)c1 (configuration not stated),"inconclusive: 11.2 µM [inhibitor, partial curve, poor fit]"
4,CC(C)CC(NC(=O)c1ccc(Cl)cc1)C(=O)OCc1cc([N+](=O)[O-])cc2c1OCOC2 (configuration not stated),"inconclusive: 28.2 µM [inhibitor, single point]"
5,O=C(O)c1ccc(N/N=C/c2ccc(OC(=O)c3cccc(Cl)c3)cc2)cc1,"inconclusive: 2.82 µM [inhibitor, full curve]"
6,O=C(c1cc(-c2ccc(Cl)cc2)on1)N(Cc1cccc(F)c1)Cc1ccco1,"inconclusive: 28.2 µM [inhibitor, single point]"
7,Cc1ccc(Cn2c(CNS(=O)(=O)c3ccc(C(C)(C)C)cc3)nc3cccnc32)cc1,"inconclusive: 28.2 µM [inhibitor, single point]"
8,Cc1c(Cl)cccc1NC(=S)N1CCN(C(=O)c2ccco2)CC1,"inconclusive: 11.2 µM [inhibitor, partial curve, poor fit]"
9,Cc1nc2sccn2c(=O)c1S(=O)(=O)NCc1ccc(F)cc1,inactive
10,Cc1ccc(NC(=O)c2cc(S(=O)(=O)N3CCc4ccccc43)cn2C)cc1C,"inconclusive: 8.91 µM [inhibitor, partial curve, poor fit]"
11,Cc1ccc(NS(=O)(=O)c2ccc(NC(=O)c3ccc(Br)o3)cc2)c(C)c1,"inconclusive: 12.6 µM [inhibitor, partial curve, poor fit]"
12,Cc1sc2nc(CN3CCCCC3)nc(Cl)c2c1C,inactive
13,CCCN1C(=O)c2ccccc2NC1c1ccc(Br)cc1 (configuration not stated),"inconclusive: 10 µM [inhibitor, partial curve]"
14,Cc1ccc(C(=O)N2CCN(Cc3ccc4c(c3)OCO4)CC2)cc1[N+](=O)[O-],"inconclusive: 8.91 µM [inhibitor, partial curve, poor fit]"
15,NC(=O)C1(N2CCCCC2)CCN(Cc2ccc(Br)cc2)CC1,"inconclusive: 28.2 µM [inhibitor, single point]"
16,Cc1cccc(C)c1OCC(=O)Nc1cc(Cl)ccc1-n1cncn1,"inconclusive: 12.6 µM [inhibitor, single point]"
17,COc1ccc(Cl)cc1NC(=O)c1cc2ccc3ccc(C)[nH]c3c2n1,"inconclusive: 2.51 µM [inhibitor, full curve]"
18,CCN1CC=C2C(C#N)=C(N)C(C#N)(C#N)C(c3cc(Cl)ccc3Cl)C2C1 (configuration not stated),"inconclusive: 28.2 µM [inhibitor, single point]"
19,O=C(/C=C1\NC2(CCCC2)Cc2ccccc21)C(=O)N/N=C/c1ccccc1O,"inconclusive: 3.98 µM [inhibitor, full curve, poor fit]"
20,COC(=O)C1Cc2c([nH]c3ccccc23)C2(CCN(Cc3ccccc3)CC2)N1 (configuration not stated),"inconclusive: 17.8 µM [inhibitor, partial curve, poor fit]"
